Results taken from the supplement of paper PMC11876631.
± gives the standard deviation of the averaged measurements. Laboratory Escherichia coli strains with one amino-acid change in an essential protein, pooled on minimal glucose agar with carbenicillin or gentamicin at twice the control MIC (plus kanamycin and chloramphenicol for the plasmids), 48 h. Fold change of barcode share against drug-free plates; higher = less susceptible. Active = above 20 in both replicates (the paper's putatively resistant). '<' = one read or none on drug, '>' = one read or none on a drug-free plate. Shares are relative, so most strains fall below 1 when a few take over. Listed are strains with at least 15 reads on both drug-free plates, and hits; most hits rest on fewer reference reads. Replicate rank correlation about 0.5. Edits are read from barcodes.

B1: purA L198W (protein)
chain: MGNNVVVLGTQWGDEGKGKIVDLLTERAKYVVRYQGGHNAGHTLVINGEKTVLHLIPSGILRENVTSIIGNGVVLSPAALMKEMKELEDRGIPVRERLLLSEACPLILDYHVALDNAREKARGAKAIGTTGRGIGPAYEDKVARRGLRVGDLFDKETFAEKLKEVMEYHNFQLVNYYKAEAVDYQKVLDDTMAVADIWTSMVVDVSDLLDQARQRGDFVMFEGAQGTLLDIDHGTYPYVTSSNTTAGGVATGSGLGPRYVDYVLGILKAYSTRVGAGPFPTELFDETGEFLCKQGNEFGATTGRRRRTGWLDTVAVRRAVQLNSLSGFCLTKLDVLDGLKEVKLCVAYRMPDGREVTTTPLAADDWKGVEPIYETMPGWSESTFGVKDRSGLPQAALNYIKRIEELTGVPIDIISTGPDRTETMILRDPFDA
B2: purA L267D (protein)
chain: MGNNVVVLGTQWGDEGKGKIVDLLTERAKYVVRYQGGHNAGHTLVINGEKTVLHLIPSGILRENVTSIIGNGVVLSPAALMKEMKELEDRGIPVRERLLLSEACPLILDYHVALDNAREKARGAKAIGTTGRGIGPAYEDKVARRGLRVGDLFDKETFAEKLKEVMEYHNFQLVNYYKAEAVDYQKVLDDTMAVADILTSMVVDVSDLLDQARQRGDFVMFEGAQGTLLDIDHGTYPYVTSSNTTAGGVATGSGLGPRYVDYVLGIDKAYSTRVGAGPFPTELFDETGEFLCKQGNEFGATTGRRRRTGWLDTVAVRRAVQLNSLSGFCLTKLDVLDGLKEVKLCVAYRMPDGREVTTTPLAADDWKGVEPIYETMPGWSESTFGVKDRSGLPQAALNYIKRIEELTGVPIDIISTGPDRTETMILRDPFDA
B3: purA I107A (protein)
chain: MGNNVVVLGTQWGDEGKGKIVDLLTERAKYVVRYQGGHNAGHTLVINGEKTVLHLIPSGILRENVTSIIGNGVVLSPAALMKEMKELEDRGIPVRERLLLSEACPLALDYHVALDNAREKARGAKAIGTTGRGIGPAYEDKVARRGLRVGDLFDKETFAEKLKEVMEYHNFQLVNYYKAEAVDYQKVLDDTMAVADILTSMVVDVSDLLDQARQRGDFVMFEGAQGTLLDIDHGTYPYVTSSNTTAGGVATGSGLGPRYVDYVLGILKAYSTRVGAGPFPTELFDETGEFLCKQGNEFGATTGRRRRTGWLDTVAVRRAVQLNSLSGFCLTKLDVLDGLKEVKLCVAYRMPDGREVTTTPLAADDWKGVEPIYETMPGWSESTFGVKDRSGLPQAALNYIKRIEELTGVPIDIISTGPDRTETMILRDPFDA
B4: purA L198P (protein)
chain: MGNNVVVLGTQWGDEGKGKIVDLLTERAKYVVRYQGGHNAGHTLVINGEKTVLHLIPSGILRENVTSIIGNGVVLSPAALMKEMKELEDRGIPVRERLLLSEACPLILDYHVALDNAREKARGAKAIGTTGRGIGPAYEDKVARRGLRVGDLFDKETFAEKLKEVMEYHNFQLVNYYKAEAVDYQKVLDDTMAVADIPTSMVVDVSDLLDQARQRGDFVMFEGAQGTLLDIDHGTYPYVTSSNTTAGGVATGSGLGPRYVDYVLGILKAYSTRVGAGPFPTELFDETGEFLCKQGNEFGATTGRRRRTGWLDTVAVRRAVQLNSLSGFCLTKLDVLDGLKEVKLCVAYRMPDGREVTTTPLAADDWKGVEPIYETMPGWSESTFGVKDRSGLPQAALNYIKRIEELTGVPIDIISTGPDRTETMILRDPFDA
B5: purA L198Q (protein)
chain: MGNNVVVLGTQWGDEGKGKIVDLLTERAKYVVRYQGGHNAGHTLVINGEKTVLHLIPSGILRENVTSIIGNGVVLSPAALMKEMKELEDRGIPVRERLLLSEACPLILDYHVALDNAREKARGAKAIGTTGRGIGPAYEDKVARRGLRVGDLFDKETFAEKLKEVMEYHNFQLVNYYKAEAVDYQKVLDDTMAVADIQTSMVVDVSDLLDQARQRGDFVMFEGAQGTLLDIDHGTYPYVTSSNTTAGGVATGSGLGPRYVDYVLGILKAYSTRVGAGPFPTELFDETGEFLCKQGNEFGATTGRRRRTGWLDTVAVRRAVQLNSLSGFCLTKLDVLDGLKEVKLCVAYRMPDGREVTTTPLAADDWKGVEPIYETMPGWSESTFGVKDRSGLPQAALNYIKRIEELTGVPIDIISTGPDRTETMILRDPFDA
B6: purA F328A (protein)
chain: MGNNVVVLGTQWGDEGKGKIVDLLTERAKYVVRYQGGHNAGHTLVINGEKTVLHLIPSGILRENVTSIIGNGVVLSPAALMKEMKELEDRGIPVRERLLLSEACPLILDYHVALDNAREKARGAKAIGTTGRGIGPAYEDKVARRGLRVGDLFDKETFAEKLKEVMEYHNFQLVNYYKAEAVDYQKVLDDTMAVADILTSMVVDVSDLLDQARQRGDFVMFEGAQGTLLDIDHGTYPYVTSSNTTAGGVATGSGLGPRYVDYVLGILKAYSTRVGAGPFPTELFDETGEFLCKQGNEFGATTGRRRRTGWLDTVAVRRAVQLNSLSGACLTKLDVLDGLKEVKLCVAYRMPDGREVTTTPLAADDWKGVEPIYETMPGWSESTFGVKDRSGLPQAALNYIKRIEELTGVPIDIISTGPDRTETMILRDPFDA
B7: purA L267W (protein)
chain: MGNNVVVLGTQWGDEGKGKIVDLLTERAKYVVRYQGGHNAGHTLVINGEKTVLHLIPSGILRENVTSIIGNGVVLSPAALMKEMKELEDRGIPVRERLLLSEACPLILDYHVALDNAREKARGAKAIGTTGRGIGPAYEDKVARRGLRVGDLFDKETFAEKLKEVMEYHNFQLVNYYKAEAVDYQKVLDDTMAVADILTSMVVDVSDLLDQARQRGDFVMFEGAQGTLLDIDHGTYPYVTSSNTTAGGVATGSGLGPRYVDYVLGIWKAYSTRVGAGPFPTELFDETGEFLCKQGNEFGATTGRRRRTGWLDTVAVRRAVQLNSLSGFCLTKLDVLDGLKEVKLCVAYRMPDGREVTTTPLAADDWKGVEPIYETMPGWSESTFGVKDRSGLPQAALNYIKRIEELTGVPIDIISTGPDRTETMILRDPFDA
B8: purA F328W (protein)
chain: MGNNVVVLGTQWGDEGKGKIVDLLTERAKYVVRYQGGHNAGHTLVINGEKTVLHLIPSGILRENVTSIIGNGVVLSPAALMKEMKELEDRGIPVRERLLLSEACPLILDYHVALDNAREKARGAKAIGTTGRGIGPAYEDKVARRGLRVGDLFDKETFAEKLKEVMEYHNFQLVNYYKAEAVDYQKVLDDTMAVADILTSMVVDVSDLLDQARQRGDFVMFEGAQGTLLDIDHGTYPYVTSSNTTAGGVATGSGLGPRYVDYVLGILKAYSTRVGAGPFPTELFDETGEFLCKQGNEFGATTGRRRRTGWLDTVAVRRAVQLNSLSGWCLTKLDVLDGLKEVKLCVAYRMPDGREVTTTPLAADDWKGVEPIYETMPGWSESTFGVKDRSGLPQAALNYIKRIEELTGVPIDIISTGPDRTETMILRDPFDA
B9: purA L198D (protein)
chain: MGNNVVVLGTQWGDEGKGKIVDLLTERAKYVVRYQGGHNAGHTLVINGEKTVLHLIPSGILRENVTSIIGNGVVLSPAALMKEMKELEDRGIPVRERLLLSEACPLILDYHVALDNAREKARGAKAIGTTGRGIGPAYEDKVARRGLRVGDLFDKETFAEKLKEVMEYHNFQLVNYYKAEAVDYQKVLDDTMAVADIDTSMVVDVSDLLDQARQRGDFVMFEGAQGTLLDIDHGTYPYVTSSNTTAGGVATGSGLGPRYVDYVLGILKAYSTRVGAGPFPTELFDETGEFLCKQGNEFGATTGRRRRTGWLDTVAVRRAVQLNSLSGFCLTKLDVLDGLKEVKLCVAYRMPDGREVTTTPLAADDWKGVEPIYETMPGWSESTFGVKDRSGLPQAALNYIKRIEELTGVPIDIISTGPDRTETMILRDPFDA
B10: purA L267A (protein)
chain: MGNNVVVLGTQWGDEGKGKIVDLLTERAKYVVRYQGGHNAGHTLVINGEKTVLHLIPSGILRENVTSIIGNGVVLSPAALMKEMKELEDRGIPVRERLLLSEACPLILDYHVALDNAREKARGAKAIGTTGRGIGPAYEDKVARRGLRVGDLFDKETFAEKLKEVMEYHNFQLVNYYKAEAVDYQKVLDDTMAVADILTSMVVDVSDLLDQARQRGDFVMFEGAQGTLLDIDHGTYPYVTSSNTTAGGVATGSGLGPRYVDYVLGIAKAYSTRVGAGPFPTELFDETGEFLCKQGNEFGATTGRRRRTGWLDTVAVRRAVQLNSLSGFCLTKLDVLDGLKEVKLCVAYRMPDGREVTTTPLAADDWKGVEPIYETMPGWSESTFGVKDRSGLPQAALNYIKRIEELTGVPIDIISTGPDRTETMILRDPFDA
B11: purA L267Q (protein)
chain: MGNNVVVLGTQWGDEGKGKIVDLLTERAKYVVRYQGGHNAGHTLVINGEKTVLHLIPSGILRENVTSIIGNGVVLSPAALMKEMKELEDRGIPVRERLLLSEACPLILDYHVALDNAREKARGAKAIGTTGRGIGPAYEDKVARRGLRVGDLFDKETFAEKLKEVMEYHNFQLVNYYKAEAVDYQKVLDDTMAVADILTSMVVDVSDLLDQARQRGDFVMFEGAQGTLLDIDHGTYPYVTSSNTTAGGVATGSGLGPRYVDYVLGIQKAYSTRVGAGPFPTELFDETGEFLCKQGNEFGATTGRRRRTGWLDTVAVRRAVQLNSLSGFCLTKLDVLDGLKEVKLCVAYRMPDGREVTTTPLAADDWKGVEPIYETMPGWSESTFGVKDRSGLPQAALNYIKRIEELTGVPIDIISTGPDRTETMILRDPFDA

Molecular target: Escherichia coli (laboratory strain)
Experiment: barcode share on antibiotic plates over drug-free plates; higher = less susceptible
Procedure: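 A pool of E. coli strains, each edited to carry one amino-acid change in an essential protein, was grown for 48 h on minimal glucose agar with or without antibiotic; strain barcodes were sequenced; mean of two replicates.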

[1] = antibiotic: carbenicillin, 2× MIC (3.1 µg/mL)
[2] = antibiotic: gentamicin, 2× MIC (MIC 0.45 µg/mL)

Row | Protein | fold change of barcode share [1] | fold change of barcode share [2]
1 | B1 | 0.496 ± 0.2 | < 0.0114
2 | B2 | 204 [active] | –
3 | B3 | 0.321 ± 0.15 | < 0.018
4 | B4 | 0.446 ± 0.038 | < 0.00835
5 | B5 | 0.55 ± 0.27 | 0.00868 ± 0.0065
6 | B6 | 0.323 ± 0.041 | < 0.00127
7 | B7 | 0.321 ± 0.085 | < 0.00835
8 | B8 | 0.674 ± 0.45 | 0.00276 ± 0.00097
9 | B9 | 0.476 ± 0.16 | 0.00793 ± 0.0023
10 | B10 | 0.399 ± 0.1 | 0.00931 ± 0.0092
11 | B11 | 0.455 ± 0.1 | 0.0088 ± 0.0057
